In US6974794B1, “Hemoglobin-antioxidant conjugates” (Hemosol LP, priority 1999, dated 2005):

B1: Hb-Trolox A: hemoglobin-Trolox conjugate prepared as described for reaction #7 in Table 1 (conjugate, UniProt P69905 2-142; P68871 2-147, looked up)
Hemoglobin subunit alpha: VLSPADKTNVKAAWGKVGAHAGEYGAEALERMFLSFPTTKTYFPHFDLSHGSAQVKGHGKKVADALTNAVAHVDDMPNALSALSDLHAHKLRVDPVNFKLLSHCLLVTLAAHLPAEFTPAVHASLDKFLASVSTVLTSKYR
Hemoglobin subunit beta: VHLTPEEKSAVTALWGKVNVDEVGGEALGRLLVVYPWTQRFFESFGDLSTPDAVMGNPKVKAHGKKVLGAFSDGLAHLDNLKGTFATLSELHCDKLHVDPENFRLLGNVLVCVLAHHFGKEFTPPVQAAYQKVVAGVANALAHKYH
modifications: Trolox conjugate
B2: Hb-Trolox B: hemoglobin-Trolox conjugate prepared as described for reaction #6 in Table 1 (conjugate, UniProt P69905 2-142; P68871 2-147, looked up)
Hemoglobin subunit alpha: VLSPADKTNVKAAWGKVGAHAGEYGAEALERMFLSFPTTKTYFPHFDLSHGSAQVKGHGKKVADALTNAVAHVDDMPNALSALSDLHAHKLRVDPVNFKLLSHCLLVTLAAHLPAEFTPAVHASLDKFLASVSTVLTSKYR
Hemoglobin subunit beta: VHLTPEEKSAVTALWGKVNVDEVGGEALGRLLVVYPWTQRFFESFGDLSTPDAVMGNPKVKAHGKKVLGAFSDGLAHLDNLKGTFATLSELHCDKLHVDPENFRLLGNVLVCVLAHHFGKEFTPPVQAAYQKVVAGVANALAHKYH
modifications: Trolox conjugate

Test system: erythrocytes
Assay: Hemolysis of erythrocytes mediated by peroxyl radicals (AAPH); protection of RBCs against lysis
Format: cell-based
Conditions: Table 4; hemoglobin 0.20 mM (12-13 mg/ml) in RBC assay suspension, under CO, 37° C.; bound Trolox 0.32 mM (A), 0.45 mM (B); lower AUC = greater protection
Procedure: Blood was collected into heparinized tubes and erythrocytes were separated by centrifugation and washed 3 times with 10 volumes of PBS, pH 7.4. During the last washing, erythrocytes were centrifuged at 1000×g for 10 minutes to obtain a consistently packed cell preparation. The assay for hemolysis mediated by peroxyl radicals was conducted by a modified method of Miki et al.,(M. Miki, H. Tamai, M. Mino, Y. Yamamoto and E. Niki., Arch. Biochem. Biophys. 258:373-380 (1987)). Equal volumes of a 30% suspension of fresh erythrocytes in PBS pH 7.4, test sample, and 300 mM 2,2;-azo-bis(2-amidinopropane dihydrochloride) (AAPH, a radical generator) were combined in order. […] As a measure of Hb released due to RBC lysis, the absorbances of supernatants were measured at 540 nm after conversion of all Hb to CN-metHb according to the method of Tentori (Meth. Enzymology 75:707 (1981)). […]
The results for two products are presented graphically in FIG. 1, a plot of relative RBC lysis against time for the various products. Products analyzed were prepared as described for reaction #6 (Hb-Trolox B) and reaction #7 (Hb-Trolox A) in Table 1 of Example 1. […] Relative protection was also determined by comparison of areas under the curves (AUC) obtained by plotting RBC lysate absorbance versus time. AUC is determined by the time of onset, rate, and overall extend of RBC lysis. […]

Molecule | AUC relative to AAPH control (%)
B1 | 10
B2 | 4
